Results: the supplement of paper PMC12632987
In all, about 1,800 sequences were measured (“median log2 fold change of GCK-ALFA target abundance (FLAG IP / Myc IP barcode read proportion)”: median about 0.14, lowest 2% from about -0.84 on). Some of the results follow.

T1: TRAF2, Q12933
T1 chain: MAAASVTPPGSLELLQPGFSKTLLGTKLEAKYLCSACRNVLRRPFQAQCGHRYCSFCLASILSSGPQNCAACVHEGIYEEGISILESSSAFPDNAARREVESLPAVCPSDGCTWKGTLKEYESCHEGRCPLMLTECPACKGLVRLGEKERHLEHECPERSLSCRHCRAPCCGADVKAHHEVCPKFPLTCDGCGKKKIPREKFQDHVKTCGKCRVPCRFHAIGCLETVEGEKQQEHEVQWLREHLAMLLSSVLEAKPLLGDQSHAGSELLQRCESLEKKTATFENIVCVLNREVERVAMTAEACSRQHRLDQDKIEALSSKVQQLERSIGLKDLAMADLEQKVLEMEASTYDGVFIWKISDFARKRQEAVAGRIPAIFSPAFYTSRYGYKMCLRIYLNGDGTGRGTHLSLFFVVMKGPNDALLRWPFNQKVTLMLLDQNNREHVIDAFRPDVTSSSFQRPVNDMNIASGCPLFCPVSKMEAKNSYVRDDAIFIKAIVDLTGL

B1: traf2_out_20_3_2240 (protein)
chain: SELEKKLKEELAKLKALLEELAPLLPPEDAARLRALLDAAEAAYKTDLSDALVELSELRRALLELAERARAAGDEETAAKLEAAADEAGRAMQLVYELIE
B2: traf2_out_16_104_1421 (protein)
chain: EAERQAAFDEAIARLEAIAAEAQRIANELMKLYEKASPEKKTALSDLLVEASELRRRALLAAQQARQDREAGGDLEEVRRTLEELEAELAALKAQLEALK
B3: traf2_out_3_89_2311 (protein)
chain: SMAQEAKIKEAKERAERYIKGFEKSARFVAEQMVKEGMSLETIRGVLEAAKSALVEELRETLKEMGLPEEEIEKIVEEFTKKLDEIVEKVVKEAEERRKK
B4: traf2_out_20_3_2180 (protein)
chain: MELEKKLEEELEKAEKLLKEAAKLADEETAKRLEKLIKRLKASRELSYDDRLVELSEIRRELLRLAEEARKRGKEELAKVLEKAADALNRAMNLVYKIIE
B5: traf2_out_6_156_2432 (protein)
chain: SPEEILKEAKEEIKKLIKELAAAPESKKIKYISKIAGTFYRALQRLRAAGASLEEIEKAAEELIETAEKEAKKAGLPEDTINLLLSSLNAVRDVALASAA
B6: traf2_out_17_178_1673 (protein)
chain: DKEKERKKISEYTDKLIDLTEETGTRLLALAEAEGALSPEELALLRQALRSGSANTLLAVARRLAPKLPSAAEAQALLDEFEKEKKELSKKIAEALAKYE
B7: traf2_out_17_162_1610 (protein)
chain: SELEERLRRIEERLERLEKKLKELEEKLKEIEKLSKEELTDLLVEASEARREAREALEEVEELRDLLDPERYEELSRRLEELAEKFQRIANEFYKELEKK
B8: traf2_out_13_95_1209 (protein)
chain: EEEKTKKLREVTNEIADDLIDFVEALAAEIEAATGRAEHRDAILAALRRYGVRAAVALIREYAAADPAHAAVYRAAADAAEAKIREAGKRIAKEDKKIEE
B9: traf2_out_6_156_2441 (protein)
chain: MKEEILKKTKEEIEEYIKKLAESSEEKHIIWFNKIAGAIYRGLQQLRDAGASLEELKEFAEELKEVIEKYLKKYGLPESIKNEVLSSVNAVFDVALREAA
B10: traf2_out_20_3_2232 (protein)
chain: SELEKEAEKKLEEALKKIEEIIKVADEETKKLLEELKKKLEEAKELDPVDRLVVASEVRRQLLLLKQEAEAAGNEELAKLLEEAAELLQRLMQLLYKIIE
B11: traf2_out_17_178_1736 (protein)
chain: TKEEIRKEIAELADERLDVTKEAMDKLKAILEAEGVLTPELAALLDQVAKTSNLYAFEEVADKAIALSSRKEEVQALKDETVKKLKELDKKIQEAVDKLE
B12: traf2_out_3_89_2296 (protein)
chain: SAAREAKLEEARRNMERYIRGFRKSAEYVAKQMLADGHSLDTLRGVLEAARNALVEEFRESLKERGLSEEDIEELVKKLTEELDKIVEEVVAAAEKARAA
B13: traf2_out_11_169_823 (protein)
chain: EEAEFNRKINDKALELNDEAVKKLEEFALALAKEEGLDVEEVKAIFEEHKGASLSAVAAALIEHFRSKGKEEAAEKVLEKYEELKEEINKKMSEFLKELK
B14: traf2_out_17_178_1672 (protein)
chain: DKEKEREKISELTDELIDLTEETGRRLLALAEAEGRLSPEELAALRAAIRSGSANTLLAVARRLAPRLSRAEEANAILAEFEKKYRELSKEIAEAYKKYE
B15: traf2_out_17_162_1590 (protein)
chain: SELEKELEEIEKELEELEKKLKELKEKLKNIDKLSKEELTDLLVEASEARRRALELLERIESLKDKLPEEKYEELSERAERLAEEFQRIANKFYKKLEEK
B16: traf2_out_20_3_2136 (protein)
chain: SELEEELKKELEKAKKLLEKAAALADKETAAKLKALIKRLEASEELSPEDRLVEFSEIRREVLELALAAEAAGKAELAKLLNEAADALNKAMNLLMKIIE
B17: traf2_out_11_155_693 (protein)
chain: EEKKKLNNELVDKMMEIEDETKKELEKIAKEAAKEHPEHAKEIAALVKESKKFSATTFGGRLAELFKKLGLEEYAKKVEKLLEESQKKKNEIYKEIEKKI
B18: traf2_out_18_117_1802 (protein)
chain: SELEEAQRRFREALERFEEEARRASRIAGKLIEKHPHNLPEEATDAIVEFGEIKRRARELALLAEEHADDLETLRRLVEETERLTERMREIRRRLEELLK
B19: traf2_out_11_169_791 (protein)
chain: EEEERNRKIIDFALELDDEAKKELKEEALKLAKEAGLDEEEIKAIFEKNKNASFSAIAADLIAYFRSKGKEEAAKKLEAKYEELQDERNKKFSEFLKSLE
B20: traf2_out_17_178_1729 (protein)
chain: SKEEILKKISEAADELLDVNEAAVDRLRAIAEREGVLTPELRARLDAVHKTANLYALEEVARELIARTSRAEEVQALLDETSKRMRELNKKIQELVEKLE
B21: traf2_out_15_48_1359 (protein)
chain: STAALRATARQINDLIDATLDEVAKELKALLPKAPPEVQPILQEAIDIASNHRSINDTIALLDEAIAKSDPELAAKLQALRDRLLATKKEASALFNATEK
B22: traf2_out_20_3_2153 (protein)
chain: SELEKKAEEAREEAIELLRRAAELADPETAARLEELRARVEASKELSYEDRLVVLSEVRREVLALAEEARRAGDEELARVLEEAAEALNRAMNLTYKIIE
B23: traf2_out_15_48_1356 (protein)
chain: STEKLRETARKINDRIDATKDAVAKELTALLPKLPEENKALAQQAIDTASNNGSINDTIALLDELAKKVDPELKAKLNALRDRLLATKREGSKLFNETLK
B24: traf2_out_6_156_2448 (protein)
chain: MLEKILEETKKKIEEGIKKLAAAPESQKIRWISRIAGTFYRALQKMREAGFSLEEIKEFIEKLRKFLEEKADEYGLDEDTKNLLLASFNAVAEVALEEAK
B25: traf2_out_18_167_1826 (protein)
chain: SEEAEKKINELRDKLIEYSEIRRLALAAIEALRTDPAAAEAALAAVIAALEKVPEFRPDAERLKALPREELPAALEEIAERAQRKMNEIYKEIEEIKKKA
B26: traf2_out_18_167_1887 (protein)
chain: EEELQKKIDELSDRLVRLSEERRAALEVLEALEESREKAKALAEEYLKKYPDSEVIKAILEALKTKSDEEVKAFLREQADALQREANRVYEELEELRKKL
B27: traf2_out_13_95_1121 (protein)
chain: SKEVAEKIMEIADKMEEKVLEILEKLLKEAKAKGIAEEEMQEILELAKHGTINTVIHKLKELAKKYPEMKEELEAAIKELEKIREEAGKEVAKILKEEKE
B28: traf2_out_11_169_815 (protein)
chain: EEAEKNRKINDFALELNDEAKKKLLEHAKKLAKEAGLDVEEVEKIFEENKNKSLSAVAAALIKYFRSKGKEEEAEAVLKKYEELKEEINKKVTEKIKELE
B29: traf2_out_14_166_1283 (protein)
chain: MSPEEIERIRKIVDELEPLNDAAVARAEALLAANRDKLSPEQLAEMERLLDIARRNIGSSAINALRRMAEIAAAAGLAETAAAFRALAEELEKRLSELNK

Biological target: T1, TRAF2, Q12933
Assay: median log2 fold change of GCK-ALFA target abundance (FLAG IP / Myc IP barcode read proportion) (log2 ratio); each designed protein is fused to an ALFA-tag nanobody in HEK293 cells to bring the named protein to FLAG-tagged glucokinase (GCK); Myc marks an untargeted standard; higher = target protein stabilised (more abundant)
Conditions: target protein: 3xFLAG-MCP-GCK-ALFA reporter; HEK293 landing pad (RPLP)
Summary of the method: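 HEK293 landing-pad cells received a recombined binder library fused to the ALFA nanobody and were induced with 2 μg mL^−1 doxycycline, then transfected with a plasmid encoding a FLAG-tagged target and a Myc-tagged standard. Lysates were collected after 48 h for anti-FLAG and anti-Myc immunoprecipitation, and the circular RNA barcodes were reverse transcribed, amplified and sequenced. Target abundance for each binder is the median log2 ratio of FLAG to Myc barcode read proportions. Barcodes had to reach a proportion of at least 10^−7 in both replicates, each binder needed at least 3 barcodes per replicate, a pseudocount of 10^−6 was applied, and the two replicates were pooled.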

Row | Binder | median log2 fold change
1 | B1 | 0.104
2 | B2 | 0.266
3 | B3 | -0.281
4 | B4 | 0.263
5 | B5 | 0.0462
6 | B6 | 0.111
7 | B7 | 0.32
8 | B8 | -0.0226
9 | B9 | 0.0652
10 | B10 | -0.00636
11 | B11 | 0.146
12 | B12 | -0.311
13 | B13 | 0.0147
14 | B14 | 0.219
15 | B15 | 0.215
16 | B16 | 0.345
17 | B17 | 0.253
18 | B18 | 0.335
19 | B19 | 0.255
20 | B20 | 0.0472
21 | B21 | 0.249
22 | B22 | 0.103
23 | B23 | 0.291
24 | B24 | -0.22
25 | B25 | 0.154
26 | B26 | 0.244
27 | B27 | 0.00218
28 | B28 | 0.235
29 | B29 | 0.229
